In the supplement of paper PMC4604168 (melanoma cell lines) one finds cell count data, which are given here for six molecules.

Some of the results follow. Repeats are few or missing, and single values can be far off.
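Further: cells treated in 1,536-well plates, then fixed and DAPI-stained, with nuclei counted from automated high-throughput microscope images.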

For this assay, the system named is SkMel28. The assay is described as follows: cell count relative to DMSO control; melanoma cells; higher = more viable cells. The conditions noted are these: library dose: standard library concentration; 72 h.
The molecule `CCCS(=O)(=O)Nc1ccc(F)c(C(=O)c2c[nH]c3ncc(Cl)cc23)c1F` + NC(=O)Nc1cc(-c2cccc(F)c2)sc1C(=O)N[C@H]1CCCNC1 [AZD7762] (first compound 0.4 µM, partner dose 0.1 µM) gave a cell count of 34.6%.

`CN(c1ncccc1CNc1nc(Nc2ccc3c(c2)CC(=O)N3)ncc1C(F)(F)F)S(C)(=O)=O` + O=c1cc(-c2cccc3c2Sc2ccccc2S3)oc(N2CCOCC2)c1 [KU55933] (first compound 0.4 µM, partner dose 5 µM): the cell count stood at 87.6%.

`CN(c1ncccc1CNc1nc(Nc2ccc3c(c2)CC(=O)N3)ncc1C(F)(F)F)S(C)(=O)=O` + O=C(O)C(=O)Nc1sc2c(c1C(=O)O)CCNC2 [TCS401] (first compound 0.4 µM, partner dose 8.33333 µM) had a cell count of 70.1%.

On to `NC1(c2ccc(-c3nc4ccn5c(=O)[nH]nc5c4cc3-c3ccccc3)cc2)CCC1` + O=S(=O)(c1ccccc1)N(CC(F)(F)F)c1ccc(C(O)(C(F)(F)F)C(F)(F)F)cc1 [T0901317] (first compound 2 µM, partner dose 7 µM), for which the cell count was 46.5%.

`CCCS(=O)(=O)Nc1ccc(F)c(C(=O)c2c[nH]c3ncc(Cl)cc23)c1F` + O=S(=O)(c1ccccc1)N(CC(F)(F)F)c1ccc(C(O)(C(F)(F)F)C(F)(F)F)cc1 [T0901317] (first compound 0.4 µM, partner dose 7 µM) displayed a cell count of 43.8%.

`CN(c1ncccc1CNc1nc(Nc2ccc3c(c2)CC(=O)N3)ncc1C(F)(F)F)S(C)(=O)=O` + O=C(Nc1ccccc1)c1cc([N+](=O)[O-])ccc1Cl [GW9662] (first compound 0.4 µM, partner dose 10 µM) came in with a cell count of 54.7%.
